Assay [1] addresses T1, CD28 mIg (UniProt P10747 19-152). Description: SPR, CD28-mIgG immobilized, bivalent analyte model, second off rate (avidity). On the procedure: (§1) Surface plasmon resonance (SPR) measurements were performed on a Biacore T100 SPR using HBS-P+ (GE Healthcare) as a running buffer. CD28-mIgG (25 μg/mL in 10 mM sodium acetate, pH 4.0) was directly immobilized onto a CM5 chip using standard amine coupling chemistry (Biacore Amine Coupling Kit, GE Healthcare), with final immobilization levels between 800 and 1900 Ru (resonance units). 2E12 binding domain constructs were injected at 25° C. or 37° C. for 150 seconds at a flow rate of 30 μl/min in a series of concentrations from 10 nM to 1 μM. Dissociation was monitored for 1200 seconds, and the surface was regenerated by injecting 50 mM NaOH for 60 seconds. Binding interactions with the surface were stable through at least 60 regeneration cycles. Data were analyzed using BiaEvaluation for the T100 software (version 2.0, GE Healthcare).
(§2) Surface plasmon resonance was used to measure binding of immobilized CD28 by 2E12 binding domain constructs. […] Binding kinetics of the bivalent 2E12 constructs (e.g., 2E12 mAb, FIGS. 27A-27B) to immobilized CD28 could not be fit to a 1:1 Langmuir binding model, but could be fit with high accuracy to a bivalent analyte binding model (Table 5). Equilibrium dissociation constants (1(D) could be calculated with high accuracy for each construct by fitting the observed response at saturation to a steady-state equilibrium model (Table 5).

In assay [2] the target is T1, CD28 mIg. Description: SPR, CD28-mIgG immobilized, bivalent analyte model, first on rate ka (I). On the procedure:
as §1, §2

In assay [3] the target is T1, CD28 mIg. In words: SPR, CD28-mIgG immobilized, steady-state equilibrium KD. On the procedure: as §1, §2
For assay [4], the target named is T1, CD28 mIg. In words: SPR, CD28-mIgG immobilized, bivalent analyte model, second on rate (avidity). More on the design: unit not given here. On the procedure: as §1, §2
For assay [5], the target named is T1, CD28 mIg. Description: SPR, CD28-mIgG immobilized, bivalent analyte model, first off rate kd (I). On the procedure:
as §1, §2

Assay [6] deals with T1, CD28 mIg. In words: SPR, CD28-mIgG immobilized, kinetic KD, bivalent analyte model, initial binding at the first site only. On the procedure:
as §1, §2

Results on one molecule are retold here after patent US20130095097A1 (EMERGENT PRODUCT DEVELOPMENT SEATTLE, published 2013).

B1: 2E12 SMIP protein (M0039) (other)
chain: VQVQLKESGPGLVAPSQSLSITCTVSGFSLTGYGVNWVRQPPGKGLEWLGMIWGDGSTDYNSALKSRLSITKDNSKSQVFLKMNSLQTDDTARYYCARDGYSNFHYYVMDYWGQGTSVTVSSGGGGSGGGGSGGGGSGGGGSDIVLTQSPASLAVSLGQRATISCRASESVEYYVTSLMQWYQQKPGQPPKLLISAASNVESGVPARFSGSGSGTDFSLNIHPVEEDDIAMYFCQQSRKVPWTFGGGTKLEIKRDQ[human IgG1 Fc with changes not written out]
notes: also called anti-CD28 SMIP protein; bivalent SMIP protein form of 2E12
In the case of B1, in assay [1], the “kd (II)” value was determined as 0.0003 s⁻¹. In addition, the kon in assay [2] was determined as 170000 M⁻¹ s⁻¹. The Kd in assay [3] came to 19.4 nM; in assay [6] it was 24.2 nM. The “ka (II)” value in assay [4] was determined as 0.000138. Besides, in assay [5], the off-rate constant (koff) turned out to be 0.00411 s⁻¹.
